According to the antibiotic and cytotoxicity screens of Wong et al. (2023):
The list shows a part of the results.

Legend:
HSkMC = human skeletal muscle cells; assay: cytotoxicity call (relative viability < 0.9); settings: 10 µM
HepG2 = assay: cytotoxicity call (relative viability < 0.9); settings: 10 µM
S. aureus RN4220 = assay: growth inhibition call (relative growth <= 0.2); settings: 50 µM

C[C@@H]1CCCCO[C@H](CN(C)C(=O)Nc2ccc(C(F)(F)F)cc2)[C@@H](C)CN([C@H](C)CO)C(=O)c2cc(NC(=O)Cc3ccccc3)ccc2O1
inactive: cytotoxicity call (HSkMC) | cytotoxicity call (HepG2) | growth inhibition call (S. aureus RN4220)

Cc1ccc(S(=O)(=O)N(C)C[C@H]2Oc3cc(C#Cc4ccccc4)ccc3S(=O)(=O)N([C@H](C)CO)C[C@@H]2C)cc1
inactive: cytotoxicity call (HSkMC) | cytotoxicity call (HepG2) | growth inhibition call (S. aureus RN4220)

COc1ccc(S(=O)(=O)Nc2ccc3c(c2)C(=O)N([C@H](C)CO)C[C@H](C)[C@@H](CN(C)C(=O)c2ccccc2)OCCCC[C@H](C)O3)cc1
inactive: cytotoxicity call (HSkMC) | cytotoxicity call (HepG2) | growth inhibition call (S. aureus RN4220)

Cc1ccc(S(=O)(=O)c2c[nH]c(=O)[nH]2)cc1
inactive: cytotoxicity call (HSkMC) | cytotoxicity call (HepG2) | growth inhibition call (S. aureus RN4220)

CO[C@H](C(=O)N(C)C[C@H]1OCc2ccccc2-c2c(n(C)c3ccccc23)C(=O)N([C@@H](C)CO)C[C@H]1C)c1ccccc1
inactive: cytotoxicity call (HSkMC) | cytotoxicity call (HepG2) | growth inhibition call (S. aureus RN4220)

COc1ccc(S(=O)(=O)N(C)C[C@H]2OCCCC[C@H](C)Oc3ccc(NC(=O)C4CCCCC4)cc3C(=O)N([C@@H](C)CO)C[C@H]2C)cc1
inactive: cytotoxicity call (HSkMC) | cytotoxicity call (HepG2) | growth inhibition call (S. aureus RN4220)

O[C@@H](Cc1ccccc1)[C@@H](/C=C/C1CC1)N(CC#Cc1ccccc1)Cc1ccccc1Br
inactive: cytotoxicity call (HSkMC) | cytotoxicity call (HepG2) | growth inhibition call (S. aureus RN4220)

C[C@@H]1CN([C@H](C)CO)S(=O)(=O)c2ccc(C#Cc3cccnc3)cc2O[C@H]1CN(C)C(=O)CN(C)C
inactive: cytotoxicity call (HSkMC) | cytotoxicity call (HepG2) | growth inhibition call (S. aureus RN4220)

C[C@H]1CN([C@@H](C)CO)C(=O)c2cc(C#CCN(C)C)cnc2O[C@@H]1CN(C)S(=O)(=O)c1cn(C)cn1
inactive: cytotoxicity call (HSkMC) | cytotoxicity call (HepG2) | growth inhibition call (S. aureus RN4220)
